Assay results as given in the supplement of paper PMC8728848.
The list shows a part of the results.

Assays:
Assay in all cases: glycan array binding signal (z-score within array); higher = stronger binding
Conditions in all cases: glycan notation: IUPAC condensed, linker removed
Gal(b1-2)Gal = target: Gal(b1-2)Gal
Summary of the method: (§1)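 The Consortium for Functional Glycomics database supplied 3228 glycan arrays, of which those lacking an available protein sequence were dropped. The binding signal, a within-array Z-score, was averaged across arrays of the same protein sequence and across linkers. Negative scores can be read as non-binding.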

Gal(b1-3)Gal = target: Gal(b1-3)Gal
Summary of the method: as §1

Gal(b1-3)Gal(b1-4)GlcNAc = target: Gal(b1-3)Gal(b1-4)GlcNAc
Summary of the method: as §1

Gal(b1-3)GalNAc = target: Gal(b1-3)GalNAc
Summary of the method: as §1

[1] = target: Gal(b1-3)GalNAc(a1-3)[Fuc(a1-2)]Gal(b1-4)Glc
Summary of the method: as §1

[2] = target: Gal(b1-3)GalNAc(a1-3)[Fuc(a1-2)]Gal(b1-4)GlcNAc
Summary of the method: as §1

Gal(b1-3)GalNAc(b1-3)Gal = target: Gal(b1-3)GalNAc(b1-3)Gal
Summary of the method: as §1

[3] = target: Gal(b1-3)GalNAc(b1-3)Gal(a1-4)Gal(b1-4)Glc
Summary of the method: as §1

[4] = target: Gal(b1-3)GalNAc(b1-4)Gal(b1-4)Glc
Summary of the method: as §1

[5] = target: Gal(b1-3)GalNAc(b1-4)[Neu5Ac(a2-3)]Gal(b1-4)Glc
Summary of the method: as §1

Gal(b1-3)GlcNAc = target: Gal(b1-3)GlcNAc
Summary of the method: as §1

[6] = target: Gal(b1-3)GlcNAc(a1-3)Gal(b1-4)GlcNAc
Summary of the method: as §1

[7] = target: Gal(b1-3)GlcNAc(a1-6)Gal(b1-4)GlcNAc
Summary of the method: as §1

Gal(b1-3)GlcNAc(b1-2)Man = target: Gal(b1-3)GlcNAc(b1-2)Man
Summary of the method: as §1

[8] = target: Gal(b1-3)GlcNAc(b1-2)Man(a1-3)[Gal(b1-3)GlcNAc(b1-2)Man(a1-6)]Man(b1-4)GlcNAc(b1-4)GlcNAc
Summary of the method: as §1

[9] = target: Gal(b1-3)GlcNAc(b1-2)Man(a1-3)[Gal(b1-3)GlcNAc(b1-2)Man(a1-6)]Man(b1-4)GlcNAc(b1-4)[Fuc(a1-6)]GlcNAc
Summary of the method: as §1

[10] = target: Gal(b1-3)GlcNAc(b1-2)Man(a1-3)[GlcNAc(b1-4)][Gal(b1-3)GlcNAc(b1-2)Man(a1-6)]Man(b1-4)GlcNAc(b1-4)GlcNAc
Summary of the method: as §1

[11] = target: Gal(b1-3)GlcNAc(b1-2)[Gal(b1-3)GlcNAc(b1-6)]Man(a1-6)[Gal(b1-3)GlcNAc(b1-2)Man(a1-3)]Man(b1-4)GlcNAc(b1-4)GlcNAc
Summary of the method: as §1

[12] = target: Gal(b1-3)GlcNAc(b1-3)Gal(b1-3)GlcNAc
Summary of the method: as §1

[13] = target: Gal(b1-3)GlcNAc(b1-3)Gal(b1-4)Glc
Summary of the method: as §1

[14] = target: Gal(b1-3)GlcNAc(b1-3)Gal(b1-4)GlcNAc
Summary of the method: as §1

[15] = target: Gal(b1-3)GlcNAc(b1-3)Gal(b1-4)GlcNAc(b1-2)Man(a1-3)[Gal(b1-3)GlcNAc(b1-3)Gal(b1-4)GlcNAc(b1-2)Man(a1-6)]Man(b1-4)GlcNAc(b1-4)GlcNAc
Summary of the method: as §1

[16] = target: Gal(b1-3)GlcNAc(b1-3)Gal(b1-4)GlcNAc(b1-2)[Gal(b1-3)GlcNAc(b1-3)Gal(b1-4)GlcNAc(b1-6)]Man(a1-6)[Gal(b1-3)GlcNAc(b1-3)Gal(b1-4)GlcNAc(b1-2)Man(a1-3)]Man(b1-4)GlcNAc(b1-4)[Fuc(a1-6)]GlcNAc
Summary of the method: as §1

[17] = target: Gal(b1-3)GlcNAc(b1-3)Gal(b1-4)GlcNAc(b1-3)Gal(b1-4)GlcNAc(b1-2)[Gal(b1-3)GlcNAc(b1-3)Gal(b1-4)GlcNAc(b1-3)Gal(b1-4)GlcNAc(b1-6)]Man(a1-6)[Gal(b1-3)GlcNAc(b1-3)Gal(b1-4)GlcNAc(b1-3)Gal(b1-4)GlcNAc(b1-2)Man(a1-3)]Man(b1-4)GlcNAc(b1-4)[Fuc(a1-6)]GlcNAc
Summary of the method: as §1

[18] = target: Gal(b1-3)GlcNAc(b1-3)Gal(b1-4)GlcNAc(b1-6)[Gal(b1-3)GlcNAc(b1-3)]Gal(b1-4)Glc
Summary of the method: as §1

[19] = target: Gal(b1-3)GlcNAc(b1-3)Gal(b1-4)[Fuc(a1-3)]GlcNAc
Summary of the method: as §1

[20] = target: Gal(b1-3)GlcNAc(b1-3)Gal(b1-4)[Fuc(a1-3)]GlcNAc(b1-6)[Gal(b1-3)GlcNAc(b1-3)]Gal(b1-4)Glc
Summary of the method: as §1

[21] = target: Gal(b1-3)GlcNAc(b1-3)GalNAc
Summary of the method: as §1

[22] = target: Gal(b1-3)GlcNAc(b1-6)Gal(b1-4)GlcNAc
Summary of the method: as §1

[23] = target: Gal(b1-3)GlcNAc(b1-6)GalNAc
Summary of the method: as §1

[24] = target: Gal(b1-3)GlcNAc(b1-6)[Gal(b1-3)]GalNAc
Summary of the method: as §1

Gal(b1-3)GlcNAc6S = target: Gal(b1-3)GlcNAc6S
Summary of the method: as §1

[25] = target: Gal(b1-3)[Fuc(a1-4)]GlcNAc
Summary of the method: as §1

[26] = target: Gal(b1-3)[Fuc(a1-4)]GlcNAc(b1-2)Man
Summary of the method: as §1

[27] = target: Gal(b1-3)[Fuc(a1-4)]GlcNAc(b1-2)Man(a1-3)[Gal(b1-3)[Fuc(a1-4)]GlcNAc(b1-2)Man(a1-6)]Man(b1-4)GlcNAc(b1-4)[Fuc(a1-6)]GlcNAc
Summary of the method: as §1

[28] = target: Gal(b1-3)[Fuc(a1-4)]GlcNAc(b1-3)Gal(b1-3)[Fuc(a1-4)]GlcNAc
Summary of the method: as §1

[29] = target: Gal(b1-3)[Fuc(a1-4)]GlcNAc(b1-3)Gal(b1-4)[Fuc(a1-3)]GlcNAc
Summary of the method: as §1

B1: Epa3to1 (Candida glabrata) (protein)
chain: MGSSHHHHHHSSGLVPRGSHMKRELSSQNPFGYPIGCSPQDVAIIPGLTMELYSYPIVSGTPPNCYDASYVDPEYPRTGYLKRKMVGKSTGVTGNLNYKYSVEKACMVKYGNLPAGYNYNEPLTVSNFTMILYGYFKAQTTGLHTFFVNADDLLYINFGAGNAFDCCKREDSKTKLGEYVAYDIWHVDSSKNKVSLFLEKDLYYPIRMFFNNREYDSSLDLSFSVNGATDQISDFSGYLYSVPDQPDTCPAHIGYDTTCR
Gal(b1-2)Gal
  glycan array binding signal (z-score): -0.134
Gal(b1-3)Gal
  glycan array binding signal (z-score): 1.72
Gal(b1-3)Gal(b1-4)GlcNAc
  glycan array binding signal (z-score): 2.23
Gal(b1-3)GalNAc
  glycan array binding signal (z-score): 0.802
[1]
  glycan array binding signal (z-score): 0.727
[2]
  glycan array binding signal (z-score): -0.289
Gal(b1-3)GalNAc(b1-3)Gal
  glycan array binding signal (z-score): 2.16
[3]
  glycan array binding signal (z-score): 1.5
[4]
  glycan array binding signal (z-score): 5.3
[5]
  glycan array binding signal (z-score): 1.56
Gal(b1-3)GlcNAc
  glycan array binding signal (z-score): -0.531
[6]
  glycan array binding signal (z-score): -0.354
[7]
  glycan array binding signal (z-score): 0.409
Gal(b1-3)GlcNAc(b1-2)Man
  glycan array binding signal (z-score): -0.013
[8]
  glycan array binding signal (z-score): 1.14
[9]
  glycan array binding signal (z-score): -0.163
[10]
  glycan array binding signal (z-score): -0.198
[11]
  glycan array binding signal (z-score): 1.67
[12]
  glycan array binding signal (z-score): -0.713
[13]
  glycan array binding signal (z-score): -0.619
[14]
  glycan array binding signal (z-score): -0.502
[15]
  glycan array binding signal (z-score): -0.495
[16]
  glycan array binding signal (z-score): 0.514
[17]
  glycan array binding signal (z-score): 0.033
[18]
  glycan array binding signal (z-score): 0.55
[19]
  glycan array binding signal (z-score): -0.365
[20]
  glycan array binding signal (z-score): -0.061
[21]
  glycan array binding signal (z-score): 0.282
[22]
  glycan array binding signal (z-score): 1.3
[23]
  glycan array binding signal (z-score): -0.115
[24]
  glycan array binding signal (z-score): -0.069
Gal(b1-3)GlcNAc6S
  glycan array binding signal (z-score): -0.15
[25]
  glycan array binding signal (z-score): 0.745
[26]
  glycan array binding signal (z-score): -0.37
[27]
  glycan array binding signal (z-score): -0.144
[28]
  glycan array binding signal (z-score): -1.4
[29]
  glycan array binding signal (z-score): -0.87
